Measurements: patent US7517874B2 (priority 2007, dated 2009)
pEC50: −log10 of the molar value. Like-named read-outs stand apart in the source and are kept apart here.

Target: human CB2 receptor (hCB2) (Homo sapiens, UniProt P34972)
Assay: cell-based
Type: cell-based
Settings: for +/− HCB2: agonist or inverse agonist at hCB2; for EC50: groups >100 nM-10 μM and >10 μM, cAMP, CHO-K1 hCB2, read-out: EC50 HCB2

Chain of human CB2 receptor (hCB2) (P34972 whole entry): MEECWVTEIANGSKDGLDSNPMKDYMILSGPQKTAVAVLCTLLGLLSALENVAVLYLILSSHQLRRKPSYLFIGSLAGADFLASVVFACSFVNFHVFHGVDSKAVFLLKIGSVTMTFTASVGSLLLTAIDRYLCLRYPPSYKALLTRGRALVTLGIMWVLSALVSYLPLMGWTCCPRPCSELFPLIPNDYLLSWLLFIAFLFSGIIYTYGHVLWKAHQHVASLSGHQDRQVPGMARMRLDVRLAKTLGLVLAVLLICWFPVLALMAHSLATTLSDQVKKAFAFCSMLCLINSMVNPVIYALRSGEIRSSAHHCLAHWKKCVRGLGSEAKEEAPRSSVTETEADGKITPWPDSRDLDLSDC

Structure (SMILES) | pEC50 | +/− HCB2 | further results
COC(=O)N1CCn2c(-c3ccccc3)nc(C(=O)N[C@@H](C)c3ccccc3)c2C1 [Compound 179, (S)-methyl 3-phenyl-1-(1-phenylethylcarbamoyl)-5,6-dihydroimidazo[1,5-a]pyrazine-7(8H)-carboxylate] | < 5.00 |  | 
CNC(=O)[C@H](CC(C)C)NC(=O)c1nc(-c2ccccc2)n2c1CN(C)CC2 [Compound 275, (S)-7-methyl-N-(4-methyl-1-(methylamino)-1-oxopentan-2-yl)-3-phenyl-5,6,7,8-tetrahydroimidazo[1,5-a]pyrazine-1-carboxamide] |  | + | 
CC(=O)N1CCn2c(-c3ccccc3)nc(C(=O)NN3CCCCC3)c2C1 [Compound 175, 7-acetyl-3-phenyl-N-(piperidin-1-yl)-5,6,7,8-tetrahydroimidazo[1,5-a]pyrazine-1-carboxamide] |  | + | 
CC(C)(C)OC(=O)N1CCCn2c(-c3ccccc3)nc(C(=O)N[C@H](C(=O)O)C(C)(C)C)c2C1 [Compound 515, (S)-2-(8-(tert-butoxycarbonyl)-3-phenyl-6,7,8,9-tetrahydro-5H-imidazo[1,5-a][1,4]diazepine-1-carboxamido)-3,3-dimethylbutanoic acid] |  |  | EC50: > 10000 nM
CNC(=O)[C@@H](NC(=O)c1nc(-c2ccccc2C(F)(F)F)n2c1CN(C)CC2)C(C)(C)C [Compound 255, (S)-N-(3,3-dimethyl-1-(methylamino)-1-oxobutan-2-yl)-7-methyl-3-(2-(trifluoromethyl)phenyl)-5,6,7,8-tetrahydroimidazo[1,5-a]pyrazine-1-carboxamide] | < 5.00 |  | 
CNC(=O)[C@@H](NC(=O)c1nc(-c2ccsc2)n2c1CN(C)CCC2)C(C)(C)C [Compound 329, (S)-N-(3,3-dimethyl-1-(methylamino)-1-oxobutan-2-yl)-8-methyl-3-(thiophen-3-yl)-6,7,8,9-tetrahydro-5H-imidazo[1,5-a][1,4]diazepine-1-carboxamide] |  | + | 
CNC(=O)[C@@H](NC(=O)c1nc(-c2ccc(C)cc2F)n2c1CNCCC2)C(C)(C)C [Compound 316, (S)-N-(3,3-dimethyl-1-(methylamino)-1-oxobutan-2-yl)-3-(2-fluoro-4-methylphenyl)-6,7,8,9-tetrahydro-5H-imidazo[1,5-a][1,4]diazepine-1-carboxamide] | < 5.00 |  | 
C[C@@H](NC(=O)c1nc(-c2ccccc2)n2c1CNCC2)C(C)(C)C [Compound 26, (R)-N-(3,3-dimethylbutan-2-yl)-3-phenyl-5,6,7,8-tetrahydroimidazo[1,5-a]pyrazine-1-carboxamide] |  | + | 
CNC(=O)[C@@H](NC(=O)c1nc(-c2cn[nH]c2)n2c1CN(C)CCC2)C(C)(C)C [Compound 432, (S)-N-(3,3-dimethyl-1-(methylamino)-1-oxobutan-2-yl)-8-methyl-3-(1H-pyrazol-4-yl)-6,7,8,9-tetrahydro-5H-imidazo[1,5-a][1,4]diazepine-1-carboxamide] |  | + | 
CNC(=O)[C@@H](NC(=O)c1nc(-c2ccc(F)c(C(N)=O)c2)n2c1CN(C)CCC2)C(C)(C)C [Compound 429, (S)-3-(3-carbamoyl-4-fluorophenyl)-N-(3,3-dimethyl-1-(methylamino)-1-oxobutan-2-yl)-8-methyl-6,7,8,9-tetrahydro-5H-imidazo[1,5-a][1,4]diazepine-1-carboxamide] |  | + | 
CNC(=O)[C@@H](NC(=O)c1nc(-c2cccnc2)n2c1CNCC2)C(C)(C)C [Compound 14, (S)-N-(3,3-dimethyl-1-(methylamino)-1-oxobutan-2-yl)-3-(pyridin-3-yl)-5,6,7,8-tetrahydroimidazo[1,5-a]pyrazine-1-carboxamide] |  | + | 
CNC(=O)[C@H](CC(C)(C)C)NC(=O)c1nc(-c2ccc(F)c(F)c2)n2c1CN(C)CCC2 [Compound 552, (S)-3-(3,4-diflurophenyl)-N-(4,4-dimethyl-1-(methylamino)-1-oxopentan-2-yl)-8-methyl-6,7,8,9-tetrahydro-5H-imidazo[1,5-a][1,4]diazepine-1-carboxamide] |  | + | 
CNC(=O)[C@@H](NC(=O)c1nc(-c2cccc(C(N)=O)c2)n2c1CN(C)CCC2)C(C)(C)C [Compound 422, (S)-3-(3-carbamoylphenyl)-N-(3,3-dimethyl-1-(methylamino)-1-oxobutan-2-yl)-8-methyl-6,7,8,9-tetrahydro-5H-imidazo[1,5-a][1,4]diazepine-1-carboxamide] | < 5.00 |  | 
Cc1ccc(-c2nc(C(=O)N[C@H](c3nc(C)no3)C(C)(C)C)c3n2CCCNC3)c(F)c1 [Compound 520, (S)-N-(2,2-dimethyl-1-(3-methyl-1,2,4-oxadiazol-5-yl)propyl)-3-(2-fluoro-4-methylphenyl)-6,7,8,9-tetrahydro-5H-imidazo[1,5-a][1,4]diazepine-1-carboxamide] | < 5.00 |  | 
CNC(=O)[C@@H](NC(=O)c1nc(-c2ccc(F)c(C(=O)O)c2)n2c1CN(C)CCC2)C(C)(C)C [Compound 411] | < 5.00 |  | 
CNC(=O)[C@@H](NC(=O)c1nc(-c2ccc(N(C)C)cc2)n2c1CN(C)CCC2)C(C)(C)C [Compound 381, (S)-N-(3,3-dimethyl-1-(methylamino)-1-oxobutan-2-yl)-3-(4-(dimethylamino)phenyl)-8-methyl-6,7,8,9-tetrahydro-5H-imidazo[1,5-a][1,4]diazepine-1-carboxamide] | < 5.00 |  | 

Structure (SMILES) | pEC50 | +/− HCB2 | further results
CNC(=O)[C@H](CC(C)C)NC(=O)c1nc(C2=CCCCO2)n2c1CN(C)CC2 [Compound 280, (S)-3-(3,4-dihydro-2H-pyran-6-yl)-7-methyl-N-(4-methyl-1-(methylamino)-1-oxopentan-2-yl)-5,6,7,8-tetrahydroimidazo[1,5-a]pyrazine-1-carboxamide] |  | + | 
CNC(=O)[C@@H](NC(=O)c1nc(-c2ccccc2)n2c1CN(C(=O)NC(C)(C)C)CC2)C(C)(C)C [Compound 192, (S)-N7-tert-butyl-N1-(3,3-dimethyl-1-(methylamino)-1-oxobutan-2-yl)-3-phenyl-5,6-dihydroimidazo[1,5-a]pyrazine-1,7(8H)-dicarboxamide] |  | + | 
CNC(=O)[C@@H](NC(=O)c1nc(-c2ccc(C(F)(F)F)cc2)n2c1CNCC2)C(C)(C)C [Compound 5, (S)-N-(3,3-dimethyl-1-(methylamino)-1-oxobutan-2-yl)-3-(4-(trifluoromethyl)phenyl)-5,6,7,8-tetrahydroimidazo[1,5-a]pyrazine-1-carboxamide] | < 5.00 |  | 
C[C@@H](NC(=O)c1nc(-c2ccccc2)n2c1CNCC2)C1CCCCC1 [Compound 45, (R)-N-(1-cyclohexylethyl)-3-phenyl-5,6,7,8-tetrahydroimidazo[1,5-a]pyrazine-1-carboxamide] |  | + | 
CN1CCCn2c(-c3ccc(F)c(F)c3)nc(C(=O)N[C@H](C(N)=O)C(C)(C)C)c2C1 [Compound 581, (S)-N-(1-amino-3,3-dimethyl-1-oxobutan-2-yl)-3-(3,4-difluorophenyl)-8-methyl-6,7,8,9-tetrahydro-5H-imidazo[1,5-a][1,4]diazepine-1-carboxamide] |  | + | 
CNC(=O)[C@@H](NC(=O)c1nc(C2CCNCC2)n2c1CN(C)CCC2)C(C)(C)C [Compound 503] |  | + | 
CC(C)CN1CCn2c(-c3ccccc3)nc(C(=O)N[C@@H](CO)C(C)(C)C)c2C1 [Compound 68, (R)-N-(1-hydroxy-3,3-dimethylbutan-2-yl)-7-isobutyl-3-phenyl-5,6,7,8-tetrahydroimidazo[1,5-a]pyrazine-1-carboxamide] | < 5.00 |  | 
CNC(=O)[C@H](CC(C)(C)C)NC(=O)c1nc(-c2cc(Cl)ccc2F)n2c1CN(C)CCC2 [Compound 545, (S)-3-(5-chloro-2-fluorophenyl)-N-(4,4-dimethyl-1-(methylamino)-1-oxopentan-2-yl)-8-methyl-6,7,8,9-tetrahydro-5H-imidazo[1,5-a][1,4]diazepine-1-carboxamide] |  | + | 
CNC(=O)[C@@H](NC(=O)c1nc(-c2ccc(Cl)cc2)n2c1CNCC2)C(C)(C)C [Compound 9, (S)-3-(4-chlorophenyl)-N-(3,3-dimethyl-1-(methylamino)-1-oxobutan-2-yl)-5,6,7,8-tetrahydroimidazo[1,5-a]pyrazine-1-carboxamide] |  | + | 
CC(C)CCNC(=O)c1nc(-c2ccc(Cl)cc2)n2c1CNCC2 [Compound 42, 3-(4-chlorophenyl)-N-isopentyl-5,6,7,8-tetrahydroimidazo[1,5-a]pyrazine-1-carboxamide] |  |  | EC50: > 10000 nM
CNC(=O)[C@@H](NC(=O)c1nc(-c2cccc(OC(F)(F)F)c2)n2c1CN(C)CCC2)C(C)(C)C [Compound 338, (S)-N-(3,3-dimethyl-1-(methylamino)-1-oxobutan-2-yl)-8-methyl-3-(3-(trifluoromethoxy)phenyl)-6,7,8,9-tetrahydro-5H-imidazo[1,5-a][1,4]diazepine-1-carboxamide] |  | + | 
CNC(=O)[C@@H](NC(=O)c1nc(C(C)C(F)(F)F)n2c1CN(C)CCC2)C(C)(C)C (stereo partly drawn) [Compound 505, N-((S)-3,3-dimethyl-1-(methylamino)-1-oxobutan-2-yl)-8-methyl-3-(1,1,1-trifluoropropan-2-yl)-6,7,8,9-tetrahydro-5H-imidazo[1,5-a][1,4]diazepine-1-carboxamide] |  | + | 
CNC(=O)[C@H](CC(C)C)NC(=O)c1nc(-c2ccc(F)cc2F)n2c1CN(C)CCC2 [Compound 534, (S)-3-(2,4-difluorophenyl)-8-methyl-N-(4-methyl-1-(methylamino)-1-oxopentan-2-yl)-6,7,8,9-tetrahydro-5H-imidazo[1,5-a][1,4]diazepine-1-carboxamide] |  | + | 
CNC(=O)[C@@H](NC(=O)c1nc(-c2ccc(-n3cccn3)cc2)n2c1CN(C)CCC2)C(C)(C)C [Compound 390, (S)-3-(4-(1H-pyrazol-1-yl)phenyl)-N-(3,3-dimethyl-1-(methylamino)-1-oxobutan-2-yl)-8-methyl-6,7,8,9-tetrahydro-5H-imidazo[1,5-a][1,4]diazepine-1-carboxamide] | < 5.00 |  | 
CN1CCCn2c(-c3cc(Cl)ccc3F)nc(C(=O)N[C@@H](CC(C)(C)C)C(N)=O)c2C1 [Compound 585, (S)-N-(1-amino-4,4-dimethyl-1-oxopentan-2-yl)-3-(5-chloro-2-fluorophenyl)-8-methyl-6,7,8,9-tetrahydro-5H-imidazo[1,5-a][1,4]diazepine-1-carboxamide] |  | + | 
